Measured values published in article PMC12820563.
The list shows a part of the results. The list includes weakly bound sequences.

Molecular target: T1, MBP-FoxP3dN (UniProt Q99JB6)
T1 sequence: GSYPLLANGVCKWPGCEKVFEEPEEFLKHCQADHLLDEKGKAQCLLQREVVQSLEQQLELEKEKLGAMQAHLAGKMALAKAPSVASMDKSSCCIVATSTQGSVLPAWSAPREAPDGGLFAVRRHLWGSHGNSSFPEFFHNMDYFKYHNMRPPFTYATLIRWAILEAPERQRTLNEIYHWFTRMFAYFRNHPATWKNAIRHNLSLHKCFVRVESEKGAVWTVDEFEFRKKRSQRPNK
Experiment: PD-seq (MBP pull-down with sequencing)
Settings: 20 mM Tris-HCl pH 7.5, 100 mM NaCl, 1.5 mM MgCl2, 0.4 uM protein, 0.1 uM dsDNA library, 30 min, room temperature, amylose pull-down; high values mean tight binding; double strand, one strand shown

Row | Sequence | binding signal (RPM ratio (pull-down/input))
1 | GATGATTGTTCTCCCAGCTGATGAATTTTTGACATCGAGTAAACAAATTTTCCTAATCTTTCTGTTCAAGCGCCATCTAC | 0.524
2 | GATGATTGTTCTCCCAGCTGATGAATTTTGTTGTTCGAGTAAACAAATTTTCCTAATCTTTCTGTTCAAGCGCCATCTAC | 8.13
3 | GATGATTGTTCTCCCAGCTGATGAATTACTGAGCTCGAGTAAACAAATTTTCCTAATCTTTCTGTTCAAGCGCCATCTAC | 0.258
4 | GATGATTGTTCTCCCAGCTGATGAATTTTAACGGTCGAGTAAACAAATTTTCCTAATCTTTCTGTTCAAGCGCCATCTAC | 0.257
5 | GATGATTGTTCTCCCAGCTGATGAATTCCAAGTCTCGAGTAAACAAATTTTCCTAATCTTTCTGTTCAAGCGCCATCTAC | 0.299
6 | GATGATTGTTCTCCCAGCTGATGAATTCGCTGGATCGAGTAAACAAATTTTCCTAATCTTTCTGTTCAAGCGCCATCTAC | 0.251
7 | GATGATTGTTCTCCCAGCTGATGAATTCGGCTGTTCGAGTAAACAAATTTTCCTAATCTTTCTGTTCAAGCGCCATCTAC | 1
8 | GATGATTGTTCTCCCAGCTGATGAATTCGCGCGGTCGAGTAAACAAATTTTCCTAATCTTTCTGTTCAAGCGCCATCTAC | 0.455
9 | GATGATTGTTCTCCCAGCTGATGAATTGTGGAGATCGAGTAAACAAATTTTCCTAATCTTTCTGTTCAAGCGCCATCTAC | 0.339
10 | GATGATTGTTCTCCCAGCTGATGAATTCGGAACGTCGAGTAAACAAATTTTCCTAATCTTTCTGTTCAAGCGCCATCTAC | 0.297
11 | GATGATTGTTCTCCCAGCTGATGAATTACGGGGTTCGAGTAAACAAATTTTCCTAATCTTTCTGTTCAAGCGCCATCTAC | 0.472
12 | GATGATTGTTCTCCCAGCTGATGAATTATGCTGCTCGAGTAAACAAATTTTCCTAATCTTTCTGTTCAAGCGCCATCTAC | 1.27
13 | GATGATTGTTCTCCCAGCTGATGAATTTACGGTCTCGAGTAAACAAATTTTCCTAATCTTTCTGTTCAAGCGCCATCTAC | 0.565
14 | GATGATTGTTCTCCCAGCTGATGAATTCTTCGCCTCGAGTAAACAAATTTTCCTAATCTTTCTGTTCAAGCGCCATCTAC | 0.371
15 | GATGATTGTTCTCCCAGCTGATGAATTCCGATCTTCGAGTAAACAAATTTTCCTAATCTTTCTGTTCAAGCGCCATCTAC | 0.34
16 | GATGATTGTTCTCCCAGCTGATGAATTGACCGCCTCGAGTAAACAAATTTTCCTAATCTTTCTGTTCAAGCGCCATCTAC | 0.524
17 | GATGATTGTTCTCCCAGCTGATGAATTCAATCTATCGAGTAAACAAATTTTCCTAATCTTTCTGTTCAAGCGCCATCTAC | 0.37
18 | GATGATTGTTCTCCCAGCTGATGAATTCAGGTTCTCGAGTAAACAAATTTTCCTAATCTTTCTGTTCAAGCGCCATCTAC | 0.671
19 | GATGATTGTTCTCCCAGCTGATGAATTAATAGAATCGAGTAAACAAATTTTCCTAATCTTTCTGTTCAAGCGCCATCTAC | 0.228
20 | GATGATTGTTCTCCCAGCTGATGAATTCGGCTACTCGAGTAAACAAATTTTCCTAATCTTTCTGTTCAAGCGCCATCTAC | 1.52
21 | GATGATTGTTCTCCCAGCTGATGAATTTGCCACCTCGAGTAAACAAATTTTCCTAATCTTTCTGTTCAAGCGCCATCTAC | 1.98

Row | Sequence | binding signal (RPM ratio (pull-down/input))
22 | GATGATTGTTCTCCCAGCTGATGAATTCGCTACTTCGAGTAAACAAATTTTCCTAATCTTTCTGTTCAAGCGCCATCTAC | 0.488
23 | GATGATTGTTCTCCCAGCTGATGAATTCTTTAGTTCGAGTAAACAAATTTTCCTAATCTTTCTGTTCAAGCGCCATCTAC | 0.297
24 | GATGATTGTTCTCCCAGCTGATGAATTGCGATTTTCGAGTAAACAAATTTTCCTAATCTTTCTGTTCAAGCGCCATCTAC | 1.44
25 | GATGATTGTTCTCCCAGCTGATGAATTTGCGGAGTCGAGTAAACAAATTTTCCTAATCTTTCTGTTCAAGCGCCATCTAC | 0.401
26 | GATGATTGTTCTCCCAGCTGATGAATTGCGAAAGTCGAGTAAACAAATTTTCCTAATCTTTCTGTTCAAGCGCCATCTAC | 0.462
27 | GATGATTGTTCTCCCAGCTGATGAATTTTCCACATCGAGTAAACAAATTTTCCTAATCTTTCTGTTCAAGCGCCATCTAC | 0.34
28 | GATGATTGTTCTCCCAGCTGATGAATTTCAGTAATCGAGTAAACAAATTTTCCTAATCTTTCTGTTCAAGCGCCATCTAC | 0.45
29 | GATGATTGTTCTCCCAGCTGATGAATTGTGAGTCTCGAGTAAACAAATTTTCCTAATCTTTCTGTTCAAGCGCCATCTAC | 2.55
30 | GATGATTGTTCTCCCAGCTGATGAATTAGAGTAGTCGAGTAAACAAATTTTCCTAATCTTTCTGTTCAAGCGCCATCTAC | 0.423
31 | GATGATTGTTCTCCCAGCTGATGAATTAGGGGACTCGAGTAAACAAATTTTCCTAATCTTTCTGTTCAAGCGCCATCTAC | 0.396
32 | GATGATTGTTCTCCCAGCTGATGAATTCTAAAACTCGAGTAAACAAATTTTCCTAATCTTTCTGTTCAAGCGCCATCTAC | 0.213
33 | GATGATTGTTCTCCCAGCTGATGAATTGCGGAAGTCGAGTAAACAAATTTTCCTAATCTTTCTGTTCAAGCGCCATCTAC | 0.427
34 | GATGATTGTTCTCCCAGCTGATGAATTTGCTCTCTCGAGTAAACAAATTTTCCTAATCTTTCTGTTCAAGCGCCATCTAC | 0.488
35 | GATGATTGTTCTCCCAGCTGATGAATTTCGTTTTTCGAGTAAACAAATTTTCCTAATCTTTCTGTTCAAGCGCCATCTAC | 1.82
36 | GATGATTGTTCTCCCAGCTGATGAATTCAATAATTCGAGTAAACAAATTTTCCTAATCTTTCTGTTCAAGCGCCATCTAC | 0.372
37 | GATGATTGTTCTCCCAGCTGATGAATTATGTTACTCGAGTAAACAAATTTTCCTAATCTTTCTGTTCAAGCGCCATCTAC | 3.2
38 | GATGATTGTTCTCCCAGCTGATGAATTCGTCAACTCGAGTAAACAAATTTTCCTAATCTTTCTGTTCAAGCGCCATCTAC | 0.538
39 | GATGATTGTTCTCCCAGCTGATGAATTTTGTAGCTCGAGTAAACAAATTTTCCTAATCTTTCTGTTCAAGCGCCATCTAC | 2.81
40 | GATGATTGTTCTCCCAGCTGATGAATTCATGAAGTCGAGTAAACAAATTTTCCTAATCTTTCTGTTCAAGCGCCATCTAC | 0.221
41 | GATGATTGTTCTCCCAGCTGATGAATTTCTTAAGTCGAGTAAACAAATTTTCCTAATCTTTCTGTTCAAGCGCCATCTAC | 0.196
42 | GATGATTGTTCTCCCAGCTGATGAATTACGTCCTTCGAGTAAACAAATTTTCCTAATCTTTCTGTTCAAGCGCCATCTAC | 0.518

Row | Sequence | binding signal (RPM ratio (pull-down/input))
43 | GATGATTGTTCTCCCAGCTGATGAATTCCCTACGTCGAGTAAACAAATTTTCCTAATCTTTCTGTTCAAGCGCCATCTAC | 0.253
44 | GATGATTGTTCTCCCAGCTGATGAATTACCATAGTCGAGTAAACAAATTTTCCTAATCTTTCTGTTCAAGCGCCATCTAC | 0.318
45 | GATGATTGTTCTCCCAGCTGATGAATTGACTTAGTCGAGTAAACAAATTTTCCTAATCTTTCTGTTCAAGCGCCATCTAC | 0.369
46 | GATGATTGTTCTCCCAGCTGATGAATTCTGATTCTCGAGTAAACAAATTTTCCTAATCTTTCTGTTCAAGCGCCATCTAC | 0.976
47 | GATGATTGTTCTCCCAGCTGATGAATTACTTTCTTCGAGTAAACAAATTTTCCTAATCTTTCTGTTCAAGCGCCATCTAC | 0.388
48 | GATGATTGTTCTCCCAGCTGATGAATTAGTTCGTTCGAGTAAACAAATTTTCCTAATCTTTCTGTTCAAGCGCCATCTAC | 0.685
49 | GATGATTGTTCTCCCAGCTGATGAATTCGCTAGATCGAGTAAACAAATTTTCCTAATCTTTCTGTTCAAGCGCCATCTAC | 0.323
50 | GATGATTGTTCTCCCAGCTGATGAATTACTTCGTTCGAGTAAACAAATTTTCCTAATCTTTCTGTTCAAGCGCCATCTAC | 0.322
51 | GATGATTGTTCTCCCAGCTGATGAATTCGCCGAGTCGAGTAAACAAATTTTCCTAATCTTTCTGTTCAAGCGCCATCTAC | 0.196
52 | GATGATTGTTCTCCCAGCTGATGAATTCATCCATTCGAGTAAACAAATTTTCCTAATCTTTCTGTTCAAGCGCCATCTAC | 0.411
53 | GATGATTGTTCTCCCAGCTGATGAATTTTGATCTTCGAGTAAACAAATTTTCCTAATCTTTCTGTTCAAGCGCCATCTAC | 0.415
54 | GATGATTGTTCTCCCAGCTGATGAATTTAACCTGTCGAGTAAACAAATTTTCCTAATCTTTCTGTTCAAGCGCCATCTAC | 0.318
55 | GATGATTGTTCTCCCAGCTGATGAATTTCCCGCATCGAGTAAACAAATTTTCCTAATCTTTCTGTTCAAGCGCCATCTAC | 0.913
56 | GATGATTGTTCTCCCAGCTGATGAATTATTGGCGTCGAGTAAACAAATTTTCCTAATCTTTCTGTTCAAGCGCCATCTAC | 0.837
57 | GATGATTGTTCTCCCAGCTGATGAATTCTCCCTATCGAGTAAACAAATTTTCCTAATCTTTCTGTTCAAGCGCCATCTAC | 0.281
58 | GATGATTGTTCTCCCAGCTGATGAATTAGTAATTTCGAGTAAACAAATTTTCCTAATCTTTCTGTTCAAGCGCCATCTAC | 0.84
59 | GATGATTGTTCTCCCAGCTGATGAATTACGAGGTTCGAGTAAACAAATTTTCCTAATCTTTCTGTTCAAGCGCCATCTAC | 0.392
60 | GATGATTGTTCTCCCAGCTGATGAATTGACCAGCTCGAGTAAACAAATTTTCCTAATCTTTCTGTTCAAGCGCCATCTAC | 0.22
61 | GATGATTGTTCTCCCAGCTGATGAATTGCCAGCTTCGAGTAAACAAATTTTCCTAATCTTTCTGTTCAAGCGCCATCTAC | 0.516
62 | GATGATTGTTCTCCCAGCTGATGAATTCGGCTTGTCGAGTAAACAAATTTTCCTAATCTTTCTGTTCAAGCGCCATCTAC | 2.89
63 | GATGATTGTTCTCCCAGCTGATGAATTCCAGCGCTCGAGTAAACAAATTTTCCTAATCTTTCTGTTCAAGCGCCATCTAC | 0.321
